Assay results as given in the supplement of paper PMC10338343.
± gives the standard deviation. The entries are a selection whose mix differs from that of the whole data set.

Tested on: MIWI (PIWIL1) piRISC loaded with L1MC piRNA (30 nt)
Assay: pre-steady-state target cleavage rate (min^-1); MIWI and MILI are mouse PIWI proteins and EfPiwi is from a freshwater sponge; tags in brackets are library labels; higher = faster piRNA-guided slicing of the target
Settings: guide: L1MC piRNA 5'p-UAACUAAAUACUAUGCAAGCUGUAGGUCCU; auxiliary factor: none (no GTSF1)
Procedure, shortened: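 In this Cleave-'n-Seq assay, uncleaved targets were sequenced and normalised to depth and to weakly complementary targets. They came from a transcribed, DNA-blocked target RNA library […] mixed with 1 nM active affinity-purified piRISC carrying one synthetic guide, with or without 500 nM GTSF1 partner protein, in HEPES–potassium acetate buffer at 33 °C for 0–8 or 0–960 min. After three trials were pooled and k3 was capped at 0.0001 min^-1, the pre-steady-state cleavage rate was obtained from a burst-and-steady-state fit.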
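Note: 1 nM active piRISC with 0.1 nM target library at 33 °C single turnover.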

| Sequence | pre-steady-state target cleavage rate |
| --- | --- |
| UCGACCUAGCAGCUUGCAUAGUAUUUAGUUA | 0.0726 ± 0.016 |
| UCCUGGAUGUCGAACGAUAGUAUUUCGUUA | < 0.0001 |
| UCCUGGAUGUCGAACGAUUAGUAUUUAGUUA | < 0.0001 |
| AGGACCUACUGCUUGGAUAGUAUUUAGUUA | 0.061 ± 0.0085 |
| UCCUGGAUGUCGAACCAUACUAAUUAGUUA | < 0.0001 |
| UCCUGGAUGUCGAACGUAUCUUUUUAGUUA | < 0.0001 |
| UCCUGGAUGUCGAACGAUACAUUUUAGUUA | < 0.0001 |
